Reference: PubChem BioAssay AID938 (National Center for Advancing Translational Sciences (NCATS), 2007)
Among all 73,000 compounds or so, about 1,800 (2.5%) were called active. Roughly 13% stayed inconclusive and do not appear here. The call rests on the fitted dose curve; in most records, active means well fitted activation curve with a large enough effect; inconclusive means small, poorly fitted or top-dose-only effect; inactive means no such curve, though single readings can be large or run the other way. The list shows a part of the results, in another mix than the full data.

Assay: qHTS Assay for Agonists of the Thyroid Stimulating Hormone Receptor: Activators of Intracellular cAMP Concentrations in Parental HEK 293; further: nearly all actives have a fitted effect of over 55% in size; on activation: % of control where 0% means no effect
Conditions: parental HEK293 CNG cAMP sensor, membrane potential fluorescence; series mostly up to 57.1 µM; activation: at the top concentration
Excerpt: NIH Chemical Genomics Center [NCGC]
NIH Molecular Libraries Screening Centers Network [MLSCN]
PI Name: Dr. Marvin Gershengorn
This cell based assay utilized a cyclic nucleotide gated ion channel (CNG) as a biosensor for cAMP induction. HEK 293 cells stably expressing the modified CNG were purchased from BD biosciences (http://www.atto.com/products/actone/features_benefits.shtml) . Stimulation of cAMP production causes the CNG to open and subsequent membrane depolarization to occur. A fluorescent membrane potential dye (BD biosciences) was utilized to detect cAMP stimulation in cells.
The cells were maintained in DMEM medium (Invitrogen) containing 10 % FBS (Hyclone), 100 units/ml Penicillin, 100 ug/ml Streptomycin (Invitrogen), and 250 ug/ml Geneticin (Invitrogen) and 1 ug/ml Puromycin (Invitrogen) at 37C in 5% CO2. This assay was used as a counterscreen to "qHTS Assay for Agonists of the Thyroid Stimulating Hormone Receptor", to control for compounds signaling through endogenous receptors and other targets of HEK 293 cells.
NCGC Assay Protocol Summary:
High Throughput Screening. Freshly passaged cells were dispensed into 1536-well assay plates at 4 ul/well in DMEM containing phenol red (Invitrogen), 10% FCS (Hyclone), and 100 units/ml Penicillin, 100 ug/ml Streptomycin (Invitrogen) and incubated at 37 C with 5% CO2 for 20 to 36 hrs before the robotic screening. The screen was initiated by addition of 4 ul/well membrane potential dye containing 100 uM RO 20-1724 (Sigma Aldrich), followed by 60 min incubation at room temperature to allow for dye equilibration across the cell membrane. 23 nl/well compound or control was then added to the assay plates, which were incubated for additional 30 min before reading a Envision fluorescence plate reader (Perkin Elmer) in bottom-read mode for fluorescence intensity (emission at 590 nm).
Keywords: cAMP, CNG Ion Channel, quantitative high throughput screening, qHTS, HTS, probe identification, CNG, cAMP, cyclic nucleotide gated ion channel PubChem
Potency means the concentration at half of the fitted maximal effect.

| Compound | Potency | activation |
| --- | --- | --- |
| COc1ccccc1-c1noc(-c2ccccc2C(=O)Nc2ccccc2)n1 | active: 25.1 µM |  |
| C=C(C)C(=O)OCC(C)C |  | inactive: -3.74% |
| COc1cc(N)c(Cl)cc1C(=O)N[C@H]1CCN(CCCOc2ccc(F)cc2)C[C@H]1OC |  | inactive: -1.08% [at 25.6 µM] |
| COc1ccc(C)cc1NC(=O)COCC(=O)O |  | inactive: 20.5% |
| CCCCOC(=O)CNc1nnc(SCC(=O)OCC)[nH]c1=O |  | inactive: -43% |
| N#Cc1c2c(c(NCCCN3CCOCC3)n3c1nc1ccccc13)CCC2 |  | inactive: -54% |
| Nc1ccc(Cl)cc1Cl |  | inactive: -29.4% |
| CC(C)(C)CC(C)(C)c1ccc(OCCOCC[N+](C)(C)Cc2ccccc2)cc1 |  | inactive: 18.6% |
| COC(=O)CC1Oc2ccccc2N(Cc2ccccc2)C1=O (stereo not given) |  | inactive: -57.3% |
| COc1cccc(Cn2c(=O)c(-c3cccc(C#N)c3)nc3cnc(N4CCN(C)CC4)nc32)c1 |  | inactive: -78.4% |
| O=C(c1cc(C2CC2)on1)N1CCN(c2ccc(F)cc2)CC1 |  | inactive: 15.3% |
| Cc1oc2c(O)c(O)ccc2c(=O)c1-c1cnn(-c2ccccc2)c1 |  | inactive: -32.1% |
| COC(=O)CCN(C(C)=O)c1ccc(N)cc1 |  | inactive: -67% |
| CCc1c(C#N)c(SCc2c(C)noc2C)nc2c1C(=O)CC(C)(C)C2 | active: 12.6 µM |  |
| NC(=O)c1ccccc1 | inactive |  |
| Cc1cc(-c2nnc3n2N=C(c2ccc(-c4ccccc4)cc2)CS3)n[nH]1 | active: 31.6 µM |  |
| CCCCc1oc2ccccc2c1C(=O)c1cc(I)c(OCCN(CC)CC)c(I)c1 |  | inactive: 0.716% [at 25.6 µM] |
| CCCCc1c2ccccc2nc2[nH]c3ccccc3c12 | active: 12.6 µM |  |
| COc1ccc(C)cc1S(=O)(=O)N(CC(=O)O)c1ccccc1 |  | inactive: -37.2% |
| O=C(O)c1cc2cc(F)ccc2[nH]1 |  | inactive: 24.1% |
| CC(=O)N[C@H](c1ccccc1)[C@@]1(C)C[C@@H]1[C@@H](C)C(=O)Nc1ccc2ccccc2c1 |  | inactive: -2.97% |
| O=C(/C=N/O)NCC1CCNCC1 |  | inactive: -60.2% |
| c1cc2c(cc1Nc1nc(-c3ccc4c(c3)OCO4)cs1)OCCO2 |  | inactive: -32.2% |
| Cc1ccc(-c2cc(C(=O)N3CCCC3)no2)cc1 |  | inactive: -44.4% |

| Compound | Potency | activation |
| --- | --- | --- |
| CC(/C=C/C=C(C)/C=C/C(=O)O)=C\C=C\C=C(C)\C=C\C=C(C)\C=C\C(=O)O |  | inactive: 31.1% |
| OCCN1CCN(C(=S)c2ccc(Cl)c(Cl)c2)CC1 |  | inactive: -60% |
| CCS(=O)(=O)N1CCC(C(=O)NCCN2CCN(Cc3ccccc3)CC2)CC1 |  | inactive: -2.5% |
| CCOC(=O)c1c(-c2ccccc2)c(C(C)=O)c(=O)n(C)c1C |  | inactive: 9.96% |
| O=C(O)CC1C(=O)NCCN1Cc1ccc(F)c(F)c1 (stereo not given) |  | inactive: 4.57% |
| O=c1oc2ccc(Br)cc2cc1-c1nc2ccccc2o1 |  | inactive: -46.4% |
| CN(C)CC[C@@H](c1ccccc1)c1ccccn1 |  | inactive: 3.55% [at 25.6 µM] |
| CC(C)OC(=O)CSc1nc2cccnc2n1C1CCCCC1 | active: 15.8 µM |  |
| Cc1nc2sccn2c(=O)c1CCN1CCC(=C(c2ccc(F)cc2)c2ccc(F)cc2)CC1 | inactive |  |
| CCOC(=O)c1ccc(-n2ncc(C(=O)OCC)c2N)cc1 |  | inactive: -2.35% |
| CNc1sc(C(=O)c2cccs2)c(N)c1-c1nc2ccccc2s1 |  | inactive: -47% |
| COc1ccc2nc(C)cc(Nc3ccc(N4CCOCC4)cc3)c2c1 |  | inactive: -53.3% |
| CC1CCCC(C)N1C(=O)Cn1c(SCC(=O)NCc2ccc3c(c2)OCO3)nc2ccccc21 (stereo not given) | active: 15.8 µM |  |
| CC(C)CC1(C(=O)NCCN2CCOCC2)C=CCN1C(=O)c1ccccc1 (stereo not given) |  | inactive: 23.3% |
| CCOC(=O)CCn1nc(-c2ccc(Cl)cc2)cc1N |  | inactive: 7.3% |
| CCC/C=C(\CCC)C(NS(=O)(=O)c1cccc2cccnc12)c1ccc(C(=O)OC)cc1 (stereo not given) |  | inactive: 35.7% |
| N=c1nc(N2CCCCC2)cc(N)n1O | inactive |  |
| COC(=O)c1sc(NC(=O)c2ccc(Cn3cc(Cl)cn3)o2)c(C#N)c1C |  | inactive: -34.1% |
| O=C(CSc1nnc(-c2cnccn2)n1Cc1ccco1)c1ccc(Cl)c(Cl)c1 | active: 25.1 µM |  |
| Nc1nc2c(nc(Br)n2[C@@H]2O[C@H]3COP(=O)(O)O[C@H]3[C@@H]2O)c(=O)[nH]1 |  | inactive: -3.67% |
| CCN(CC)CCNC(=O)C(C(=O)c1ccccc1)n1ccccc1=O (stereo not given) |  | inactive: -139% |
| O[C@@](CCN1CCCCC1)(c1ccccc1)C1CCCCC1 |  | inactive: 32.1% [at 25.6 µM] |
| Cc1ccc(S(=O)(=O)N(CC(=O)O)Cc2cccc(C)c2)cc1 |  | inactive: 6.31% |
| N#CCCn1c(=O)c(-c2cc(F)cc(F)c2)nc2cnc(Oc3ccccc3)nc21 |  | inactive: -30.7% |

| Compound | Potency | activation |
| --- | --- | --- |
| COc1ccc(CNc2cc(-c3ccccc3C)ncn2)c(OC)c1 | active: 15.8 µM |  |
| COc1ccc(-c2nc3cnccn3c2Nc2ccc3c(c2)OCO3)cc1 |  | inactive: -31.1% |
| Clc1ccc(C(c2ccccc2Cl)C(Cl)Cl)cc1 (stereo not given) |  | inactive: 4.97% |
| CC12CCC(C(=O)NCc3ccccc3)(OC1=O)C2(C)C (stereo not given) |  | inactive: -56.3% |
| COc1ccc(S(=O)(=O)N2CCC(C(=O)N3CCc4ccccc4C3)CC2)cc1 | active: 31.6 µM |  |
| Cn1c(O)c(N=N/C(=N/c2ccccn2)c2ccccn2)c2cc(Br)ccc21 |  | inactive: -46.4% |
| CCCNC(=O)NS(=O)(=O)c1ccc(Cl)cc1 | inactive |  |
| CCOC(=O)C1CCCN(Cc2ccc(OC)cc2OC)C1 (stereo not given) | active: 31.6 µM |  |
| CCN(CC)c1ccc(/C=N/NC(=O)c2ccc(O)cc2)cc1 |  | inactive: -33.7% |
| CCC(c1nnnn1Cc1cccs1)N1CCN(C2CCCC2)CC1 (stereo not given) | active: 5.01 µM |  |
| Cc1ccc(-c2noc(CCC(=O)NCCc3ccccc3Cl)n2)cc1 |  | inactive: -30.3% |
| CCOc1ccc2nc(NC(=O)Cn3cnc4c3c(=O)n(C)c(=O)n4C)sc2c1 |  | inactive: -41.4% |
| Cc1ccc(CCNC(=O)C2CCC(=O)N2C(C)C)cc1 (stereo not given) |  | inactive: -32.6% |
| CCC1CCc2c(sc3ncnc(N4CCOCC4)c23)C1 (stereo not given) | active: 31.6 µM |  |
| O=C1NCC2(CCN(CCc3ccccc3)CC2)O1 |  | inactive: 0.246% |
| O=C(O)CCCC[C@H]1CCSS1 |  | inactive: 15.5% |
| Cc1cc(C)n(-c2ccn(Cc3ccc(Cl)cc3Cl)c(=O)n2)n1 | active: 15.8 µM |  |
| Cc1cc(C)n(-c2nc(NCC3CCCO3)c3c4c(sc3n2)COC(C)(C)C4)n1 (stereo not given) | active: 25.1 µM |  |
| N=c1c(C(=O)NCc2ccc3c(c2)OCO3)cc2c(=O)n3ccccc3nc2n1Cc1cccnc1 |  | inactive: -80.7% |
| CCC1(c2ccccc2)C(=O)NCNC1=O | inactive |  |
| C[C@@H](C(=O)Nc1ccc2ccccc2c1)[C@H]1C[C@]1(C)[C@H](NC(=O)c1ccccc1)c1ccccc1 |  | inactive: 10.6% |
| Cc1cc(C(=O)OCc2nnc(-c3ccccc3)o2)c(C)n1-c1ccccc1 | active: 12.6 µM |  |
